Target: Aβ42 aggregates in Aβ42 Drosophila brains (Homo sapiens, UniProt P05067, E693G)
Test: Immunofluorescence of Aβ42 aggregates in adult fly brain
Assay type: in vivo, Drosophila melanogaster
Conditions: vs untreated flies, 15 days post-hatching, n=8
From the text: Motivated by these positive results, we decided to study the ability of the most promising 22 to reduce the presence of amyloid plaques and aggregates in the brain of Aβ42 flies. Indeed, these flies are characterized by intracellular Aβ42 accumulation, followed by non-amyloid aggregates that resemble diffuse plaques.[56] Thus, the brains of treated and untreated flies, together with the control, were dissected and analyzed at 15 days post-hatching. […] Importantly, such deposits were nearly absent in the brains of Aβ42Drosophila flies treated with 22 (Figure 6C,D).
The dissection of each tissue analyzed was performed through the use of thin forceps in a dissection dish filled with 1% PBS solution, following a published protocol.[65] After fixation in PFA 4% (paraformaldehyde) for 20 min, the samples were cleaned from fat bodies and tracheal tube residues, in 1% PBS solution. In the end, they were moved to a 1.5 mL Eppendorf tube for the subsequent steps. The permeabilization of the membranes used PBS Triton (PBST) 0.3% solution, which is a detergent used also in tissue culture analysis. […] After washes in PBST for 20 min, each of the brains was stained with the secondary antibody (mouse FITC 1:250 Invitrogen #F2761). The samples were mounted in Fluoromount and the images were captured using a Leica confocal microscope, acquired with a 20× air objective, and a 60× mineral oil objective. […]

In the case of `CN(C)CCN1C(=O)S/C(=C\c2ccc3[nH]c4ccc(/C=C5\SC(=O)N(CCN(C)C)C5=O)cc4c3c2)C1=O` [Compound 22, (5Z,5′Z)-5,5′-((9H-Carbazole-3,6-diyl)bis(methanylylidene))bis(3-(2-(dimethylamino)ethyl)thiazolidine-2,4-dione)], the “reduction of aggregates in Aβ42 Drosophila adult brains” value is reported as 80%.

Source: article PMC9732823, “Discovery of Dual Aβ/Tau Inhibitors and Evaluation of Their Therapeutic Effect on a Drosophila Model of Alzheimer’s Disease” (ACS Chemical Neuroscience, 2022)
